Screen size: about 280,000 compounds; about 100 (0.036%) were called active. The shares of active, inactive and inconclusive entries below differ from those in the screen. Calls come from the whole dose curve; as a rule, active = well fitted inhibition curve with a large enough effect in the signal ratio, with a control signal flat (not every such curve was filed as active); inconclusive = small, poorly fitted or top-dose-only effect, or effect the other way, or a change in a side signal; inactive = no such curve, though single readings can be large or run the other way; the % refers to the signal ratio. Where the call is inconclusive, the potency comes from a doubtful curve fit. A note “side channel” means that the fit belongs to a control or component signal, not to the main read-out.
These compounds were tested against Muscleblind-like protein 1 (Homo sapiens) (UniProt Q9NR56) (assay: qHTS Assay for Inhibitors of MBNL1-poly(CUG) RNA binding). Settings: TR-FRET MBNL1-His/biotin-(CUG)12 binding, 665/545 ratio; series mostly up to 57.5 µM.
How it was run: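 TR-FRET readout: Ex 340 nm, 665/545 nm emission ratio, normalized to buffer-only (basal) and MBNL1-(CUG)12 controls. Complex of MBNL1-His with Biotin-(CUG)12, compounds 92 nM–58 uM, incubated 60 min at room temperature.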
Potency is the fitted concentration of half-maximal effect; tags give direction and shape of the fitted curve or compound fluorescence and quenching.

Sequence of UniProt Q9NR56 (Q9NR56 whole entry, looked up): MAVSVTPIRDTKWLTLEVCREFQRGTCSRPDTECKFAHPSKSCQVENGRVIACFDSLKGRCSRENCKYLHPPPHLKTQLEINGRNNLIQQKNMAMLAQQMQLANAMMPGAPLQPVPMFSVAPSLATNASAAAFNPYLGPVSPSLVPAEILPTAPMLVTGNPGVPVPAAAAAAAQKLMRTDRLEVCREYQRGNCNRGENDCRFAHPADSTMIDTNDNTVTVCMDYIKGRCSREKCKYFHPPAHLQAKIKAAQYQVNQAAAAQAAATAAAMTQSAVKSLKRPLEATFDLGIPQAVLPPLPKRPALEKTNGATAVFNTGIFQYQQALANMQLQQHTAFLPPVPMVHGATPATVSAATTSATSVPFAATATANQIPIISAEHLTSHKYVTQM

Compound	Potency
COc1ccc(N(C)C(=O)c2cc3c(s2)-c2ccccc2S(=O)(=O)C3)cc1	inconclusive: 17.8 µM [quencher, side channel, partial curve]
COc1cccc(NC(=O)CSc2ccc3nnc(-c4cccnc4)n3n2)c1	inactive
Clc1ccc2[nH]c3c(N4CCC5(CC4)OCCO5)ncnc3c2c1	inactive
O=C(CCN1CCOCC1)N/N=C/c1cc([N+](=O)[O-])ccc1OC(F)F	inconclusive: 12.6 µM [quencher, side channel, partial curve]
O=C(C1=C[C@@H](c2csc3ccccc23)C[C@@H](OCc2ccc(CO)cc2)O1)N1CCN(Cc2ccc3c(c2)OCO3)CC1	inactive
CC(C)OC(=O)CCCNc1ccc([N+](=O)[O-])cc1[N+](=O)[O-]	inconclusive: 5.62 µM [activator, single point]
O=C(NC(=S)Nc1cccc2ncccc12)c1ccco1	inactive
CC(=O)Nc1ccc(N/C=C/C(=O)c2ccccc2)cc1	inconclusive: 14.1 µM [quencher, side channel, partial curve]
CCn1c(O)c(N=NC(=O)CNC(=O)/C=C/c2ccccc2)c2ccccc21	inconclusive: 3.16 µM [quencher, side channel, full curve]
Cc1ccsc1/C=N/NC(=O)c1ccco1	inconclusive: 20 µM [quencher, side channel, partial curve]
Oc1ccc2ccccc2c1CNc1cnc2ccccc2c1	inconclusive: 15.8 µM [quencher, side channel, partial curve]
O=C1Nc2ccccc2N=C(c2ccccc2)C1Br (stereo not given)	inconclusive: 17.8 µM [quencher, side channel, partial curve]
Cc1nc(NC(=O)c2ccc(Cl)cc2)nc2cc3c(cc12)OCO3	inconclusive: 39.8 µM [activator, single point]
CC(O)C(=O)N/N=C/c1cccc2ccccc12 (stereo not given)	inconclusive: 15.8 µM [quencher, side channel, partial curve]
CSc1ccc(C2C(C#N)=C(N)Oc3cc4c(cc32)OCO4)cc1 (stereo not given)	inconclusive: 39.8 µM [quencher, side channel, single point]
N#CC(C(=O)c1ccccc1)=C1SCCS1	inconclusive: 22.4 µM [quencher, side channel, partial curve]
COc1cc([N+](=O)[O-])ccc1NC(=O)CSc1nnc(C)c(C)n1	inconclusive: 14.1 µM [quencher, side channel, partial curve]
O=c1c2ccccc2nc(-c2ccccc2)n1Cc1ccccc1	inactive
CCOc1cc(/C=N/NC(=O)c2cccnc2)ccc1OCc1ccc(C(=O)OC)o1	inconclusive: 25.1 µM [quencher, side channel, partial curve]
CN1CCN(NC(=O)c2ccc(COc3ccccc3Br)o2)CC1	inactive

Compound	Potency
CCCCC(=O)Nc1ccc(NC(=S)NC(=O)CCCCl)cc1OC	inconclusive: 20 µM [quencher, side channel, single point]
Cc1nc2c(=O)n(C)c(=O)n(C)c2nc1Cl	inconclusive: 25.1 µM [quencher, side channel, partial curve]
Cc1ccccc1C(=O)Nc1ccc2c(c1)OCCO2	inactive
Cc1cc(C)n(-c2nc(NC(C)C)nc(NC(C)C)n2)n1	inactive
CN1C(=O)CC(Nc2cccc3cccc(N)c23)C1=O (stereo not given)	inconclusive: 31.6 µM [quencher, side channel, partial curve]
Cc1cc(NC(=O)CCCC(=O)N(c2ccccc2)C(C(=O)NC2CCCCC2)c2cccs2)no1 (stereo not given)	inconclusive: 0.794 µM [quencher, side channel, full curve, poor fit]
CCCn1c(C)cc(C(=O)COc2ccc(C)nc2[N+](=O)[O-])c1C	inconclusive: 10 µM [quencher, side channel, partial curve]
O=[N+]([O-])c1ccc(S(=O)(=O)N2CCN(C3CCN(Cc4ccccc4)CC3)CC2)cc1	inconclusive: 11.2 µM [quencher, partial curve]
O=c1nc(-c2ccccc2)c2cc(Br)ccc2[nH]1	inconclusive: 3.16 µM [quencher, side channel, full curve]
O=C(COC(=O)CCN1C(=O)c2cccc([N+](=O)[O-])c2C1=O)NCc1ccccc1	inconclusive: 12.6 µM [quencher, side channel, partial curve]
COc1ccc(-c2cnnc(N/N=C/C(C)=C/c3ccccc3)n2)cc1	inactive
COc1ccc(OC)c(NC(=O)CSc2nnnn2-c2ccc3c(c2)OCO3)c1	inconclusive: 0.708 µM [quencher, side channel, full curve]
Cc1n[nH]c(=O)c2c(NC(=O)CSc3nc4ccccc4c(=O)n3CCCOC(C)C)oc(C)c12	inconclusive: 14.1 µM [quencher, side channel, partial curve]
O=C1CCC(C(=O)N2CCCC(C(=O)c3ccc4c5c(cccc35)CC4)C2)=NN1 (stereo not given)	inconclusive: 12.6 µM [quencher, side channel, partial curve, poor fit]
CC(=O)Nc1ccccc1OCC(=O)NC(C)c1ccc(F)cc1 (stereo not given)	inconclusive: 0.355 µM [fluorescent, side channel, partial curve]
CCOc1ccc(CC(=O)Nc2cccc(-c3ccc4nnc(C)n4n3)c2)cc1	inconclusive: 15.8 µM [quencher, partial curve]
COCCn1c(C)nnc1SCC(=O)Nc1ccccc1[N+](=O)[O-]	inconclusive: 12.6 µM [quencher, side channel, partial curve]
CCOC(=O)c1sc2nc(-c3cccnc3)ccc2c1N	inconclusive: 14.1 µM [quencher, side channel, partial curve]
CC(/C=C/c1ccccc1)=N/NC(=O)CCC(=O)Nc1ccccc1C	inconclusive: 1.26 µM [fluorescent, side channel, full curve]
O=C(N/N=C/c1ccc(COc2ccc(Br)cc2)o1)c1ccco1	inconclusive: 10 µM [quencher, side channel, partial curve]

Compound	Potency
CN1C(=O)C(C)(C)N(C(=O)c2cccc([N+](=O)[O-])c2)c2ccccc21	inconclusive: 25.1 µM [quencher, side channel, partial curve]
COc1ccc(NC(C)=O)c2nc(C)c(C)nc12	inconclusive: 7.08 µM [quencher, side channel, partial curve]
C/C(=N\NC(=O)c1ccccc1O)c1cccs1	inactive
CCCCOc1ccc(-c2c(C#N)c(N)nc(SCC(N)=O)c2C#N)cc1	inconclusive: 39.8 µM [fluorescent, side channel, single point]
Cc1cc2c(c(=O)o1)C(c1ccc([N+](=O)[O-])o1)C(C#N)=C(N)O2 (stereo not given)	inconclusive: 28.2 µM [quencher, side channel, single point]
Cc1cc(S(=O)(=O)NC2CCCCC2)ccc1OCC(=O)N1CCOCC1	inconclusive: 0.891 µM [fluorescent, side channel, single point]
CC1CCC2C(=O)N(c3cccc(C(=O)Nc4ccc(F)cc4)c3)C(=O)C2C1 (stereo not given)	inactive
O=C(Nc1ccc(S(=O)(=O)N2CCOCC2)cc1)c1ccc([N+](=O)[O-])cc1Cl	inconclusive: 8.91 µM [quencher, side channel, full curve]
CCOC(=O)c1ccc(S(=O)(=O)NNC(=O)c2cccc(N(C)C)c2)cc1	inconclusive: 20 µM [inhibitor, single point]
COc1ccc(CNC(=O)c2cc3cccc(OC)c3oc2=N)cc1	inconclusive: 8.91 µM [quencher, partial curve]
CCOC(=O)C(=O)Nc1ccccc1C#N	inconclusive: 0.0891 µM [fluorescent, side channel, full curve]
COc1cc(N)ccc1-c1cc2ccccc2oc1=O	inconclusive: 15.8 µM [quencher, side channel, partial curve]
CC(=O)Nc1c(O)[nH]c2ccccc12	inconclusive: 39.8 µM [quencher, side channel, single point]
Cc1ccc(-c2ccc(CCC(=O)O)n2NC(N)=S)cc1	inconclusive: 0.112 µM [fluorescent, side channel, full curve, poor fit]
Cc1cc(N=Nc2ccc(Cl)cc2)cc(CN2CCCC2)c1O	inconclusive: 15.8 µM [quencher, side channel, partial curve]
CC1CCN(C(=O)CSc2nc3[nH]ncc3c(=O)[nH]2)CC1	inconclusive: 0.316 µM [fluorescent, side channel, full curve]
Cc1ccc(/C=C/C(=O)Nc2ccncc2)o1	inconclusive: 20 µM [quencher, side channel, single point]
CCOc1ccc(N2CC(C(=O)Nc3cc(C)on3)CC2=O)cc1 (stereo not given)	inconclusive: 0.316 µM [fluorescent, side channel, partial curve]
COC(=O)c1ccc(C2C(C#N)=C(C)NC3=C2C(=O)CC(C)(C)C3)cc1 (stereo not given)	inactive
CCn1cc(/C=C(\NC(=O)c2ccc(OC)c(OC)c2)C(=O)N2CCOCC2)c2ccccc21	inconclusive: 31.6 µM [quencher, side channel, single point]
